# Measured values: the supplement of paper PMC8728848
# The other results are listed elsewhere or left out.
# B1: Sebin2 (Coprinopsis cinerea), A8PE78 (protein)
# chain: MTTPFYAYCHNVQDDNTWRLGLVFANRSTADEWWRAISEATSSIPITKSITRVTPQYYTHDIRVWNMYNFFVDGNIKSISDKFRGRLFITLEYDRSGRGVSVFPPLHIVDHVSGNWYYIRSKTAPHLFWFYDETRNAIYASKEKRTRFKVSIRNPSPQTPKDAIMINSDDVVIHIKESLYVGVDSYLGHIIPTRAYRTFKFGELEGGAIAGIEVAENAEERCSSTFDGASLYFVGPDSSSPGEPWELV
# Tests used:
# Experiment in all cases: glycan array binding signal (z-score within array); higher = stronger binding
# Conditions in all cases: glycan notation: IUPAC condensed, linker removed
# [1] = target: Neu5Ac(a2-3)Gal(b1-4)GlcNAc(b1-3)[Neu5Ac(a2-3)Gal(b1-4)GlcNAc(b1-6)]GalNAc
# In short: (§1)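 Negative Z-scores can be read as non-binding. The Z-score is calculated within each array and then averaged across arrays of one protein sequence at different concentrations or buffers and across linkers. Arrays, 3228 in all, were curated from the Consortium for Functional Glycomics database and kept only where the protein sequence was available.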
# [2] = target: Neu5Ac(a2-3)Gal(b1-4)GlcNAc(b1-6)GalNAc
# In short: as §1
# [3] = target: Neu5Ac(a2-3)Gal(b1-4)GlcNAc(b1-6)[Gal(b1-3)]GalNAc
# In short: as §1
# [4] = target: Neu5Ac(a2-3)Gal(b1-4)GlcNAc(b1-6)[Neu5Ac(a2-3)Gal(b1-3)]GalNAc
# In short: as §1
# [5] = target: Neu5Ac(a2-3)Gal(b1-4)GlcNAc6S
# In short: as §1
# [6] = target: Neu5Ac(a2-3)Gal(b1-4)[Fuc(a1-3)]GlcNAc
# In short: as §1
# [7] = target: Neu5Ac(a2-3)Gal(b1-4)[Fuc(a1-3)]GlcNAc(b1-2)Man
# In short: as §1
# [8] = target: Neu5Ac(a2-3)Gal(b1-4)[Fuc(a1-3)]GlcNAc(b1-3)Gal
# In short: as §1
# [9] = target: Neu5Ac(a2-3)Gal(b1-4)[Fuc(a1-3)]GlcNAc(b1-3)Gal(b1-4)GlcNAc
# In short: as §1
# [10] = target: Neu5Ac(a2-3)Gal(b1-4)[Fuc(a1-3)]GlcNAc(b1-3)Gal(b1-4)[Fuc(a1-3)]GlcNAc(b1-3)Gal(b1-4)[Fuc(a1-3)]GlcNAc
# In short: as §1
# [11] = target: Neu5Ac(a2-3)Gal(b1-4)[Fuc(a1-3)]GlcNAc(b1-3)GalNAc
# In short: as §1
# [12] = target: Neu5Ac(a2-3)Gal(b1-4)[Fuc(a1-3)]GlcNAc(b1-6)[Gal(b1-3)]GalNAc
# In short: as §1
# [13] = target: Neu5Ac(a2-3)Gal(b1-4)[Fuc(a1-3)]GlcNAc(b1-6)[Neu5Ac(a2-3)Gal(b1-3)]GalNAc
# In short: as §1
# [14] = target: Neu5Ac(a2-3)Gal(b1-4)[Fuc(a1-3)]GlcNAc6S
# In short: as §1
# [15] = target: Neu5Ac(a2-3)Gal6S(b1-4)GlcNAc
# In short: as §1
# [16] = target: Neu5Ac(a2-3)Gal6S(b1-4)[Fuc(a1-3)]GlcNAc
# In short: as §1
# Neu5Ac(a2-3)GalNAc = target: Neu5Ac(a2-3)GalNAc
# In short: as §1
# [17] = target: Neu5Ac(a2-3)GalNAc(b1-4)GlcNAc
# In short: as §1
# [18] = target: Neu5Ac(a2-3)[GalNAc(b1-4)]Gal(b1-4)Glc
# In short: as §1
# [19] = target: Neu5Ac(a2-3)[GalNAc(b1-4)]Gal(b1-4)GlcNAc
# In short: as §1
# [20] = target: Neu5Ac(a2-3)[GalNAc(b1-4)]Gal(b1-4)GlcNAc(b1-3)GalNAc
# In short: as §1
# [21] = target: Neu5Ac(a2-3)[Neu5Ac(a2-6)]GalNAc
# In short: as §1
# Neu5Ac(a2-6)Gal = target: Neu5Ac(a2-6)Gal
# In short: as §1
# [22] = target: Neu5Ac(a2-6)Gal(b1-3)GlcNAc(b1-3)[Gal(b1-4)GlcNAc(b1-6)]Gal(b1-4)Glc
# In short: as §1
# Neu5Ac(a2-6)Gal(b1-4)Glc = target: Neu5Ac(a2-6)Gal(b1-4)Glc
# In short: as §1
# [23] = target: Neu5Ac(a2-6)Gal(b1-4)GlcNAc
# In short: as §1
# [24] = target: Neu5Ac(a2-6)Gal(b1-4)GlcNAc(b1-2)Man
# In short: as §1
# [25] = target: Neu5Ac(a2-6)Gal(b1-4)GlcNAc(b1-2)Man(a1-3)Man(b1-4)GlcNAc(b1-4)GlcNAc
# In short: as §1
# [26] = target: Neu5Ac(a2-6)Gal(b1-4)GlcNAc(b1-2)Man(a1-3)[Gal(b1-4)GlcNAc(b1-2)Man(a1-6)]Man(b1-4)GlcNAc(b1-4)GlcNAc
# In short: as §1
# [27] = target: Neu5Ac(a2-6)Gal(b1-4)GlcNAc(b1-2)Man(a1-3)[GlcNAc(b1-2)Man(a1-6)]Man(b1-4)GlcNAc(b1-4)GlcNAc
# In short: as §1
# [28] = target: Neu5Ac(a2-6)Gal(b1-4)GlcNAc(b1-2)Man(a1-3)[GlcNAc(b1-4)][Neu5Ac(a2-6)Gal(b1-4)GlcNAc(b1-2)Man(a1-6)]Man(b1-4)GlcNAc(b1-4)GlcNAc
# In short: as §1
# [29] = target: Neu5Ac(a2-6)Gal(b1-4)GlcNAc(b1-2)Man(a1-3)[Man(a1-6)]Man(b1-4)GlcNAc(b1-4)GlcNAc
# In short: as §1
# [30] = target: Neu5Ac(a2-6)Gal(b1-4)GlcNAc(b1-2)Man(a1-3)[Neu5Ac(a2-3)Gal(b1-4)GlcNAc(b1-2)Man(a1-6)]Man(b1-4)GlcNAc(b1-4)GlcNAc
# In short: as §1
# [31] = target: Neu5Ac(a2-6)Gal(b1-4)GlcNAc(b1-2)Man(a1-3)[Neu5Ac(a2-6)Gal(b1-4)GlcNAc(b1-2)Man(a1-6)]Man(b1-4)GlcNAc(b1-4)GlcNAc
# In short: as §1
# [32] = target: Neu5Ac(a2-6)Gal(b1-4)GlcNAc(b1-2)Man(a1-3)[Neu5Ac(a2-6)Gal(b1-4)GlcNAc(b1-2)Man(a1-6)]Man(b1-4)GlcNAc(b1-4)[Fuc(a1-6)]GlcNAc
# In short: as §1
# [33] = target: Neu5Ac(a2-6)Gal(b1-4)GlcNAc(b1-2)Man(a1-6)Man(b1-4)GlcNAc(b1-4)GlcNAc
# In short: as §1
# [34] = target: Neu5Ac(a2-6)Gal(b1-4)GlcNAc(b1-2)Man(a1-6)[Gal(b1-4)GlcNAc(b1-2)Man(a1-3)]Man(b1-4)GlcNAc(b1-4)GlcNAc
# In short: as §1
# [35] = target: Neu5Ac(a2-6)Gal(b1-4)GlcNAc(b1-2)Man(a1-6)[GlcNAc(b1-2)Man(a1-3)]Man(b1-4)GlcNAc(b1-4)GlcNAc
# In short: as §1
# [36] = target: Neu5Ac(a2-6)Gal(b1-4)GlcNAc(b1-2)Man(a1-6)[Man(a1-3)]Man(b1-4)GlcNAc(b1-4)GlcNAc
# In short: as §1
# [37] = target: Neu5Ac(a2-6)Gal(b1-4)GlcNAc(b1-2)[Neu5Ac(a2-6)Gal(b1-4)GlcNAc(b1-4)]Man(a1-3)[GlcNAc(b1-4)][Neu5Ac(a2-6)Gal(b1-4)GlcNAc(b1-2)[Neu5Ac(a2-6)Gal(b1-4)GlcNAc(b1-6)]Man(a1-6)]Man(b1-4)GlcNAc(b1-4)GlcNAc
# In short: as §1
# [38] = target: Neu5Ac(a2-6)Gal(b1-4)GlcNAc(b1-2)[Neu5Ac(a2-6)Gal(b1-4)GlcNAc(b1-4)]Man(a1-3)[GlcNAc(b1-4)][Neu5Ac(a2-6)Gal(b1-4)GlcNAc(b1-4)Man(a1-6)]Man(b1-4)GlcNAc(b1-4)GlcNAc
# In short: as §1
# [39] = target: Neu5Ac(a2-6)Gal(b1-4)GlcNAc(b1-2)[Neu5Ac(a2-6)Gal(b1-4)GlcNAc(b1-6)]Man(a1-6)[Neu5Ac(a2-6)Gal(b1-4)GlcNAc(b1-2)Man(a1-3)][GlcNAc(b1-4)]Man(b1-4)GlcNAc(b1-4)GlcNAc
# In short: as §1
# [40] = target: Neu5Ac(a2-6)Gal(b1-4)GlcNAc(b1-3)Gal(b1-3)GlcNAc
# In short: as §1
# [41] = target: Neu5Ac(a2-6)Gal(b1-4)GlcNAc(b1-3)Gal(b1-4)GlcNAc
# In short: as §1
# [42] = target: Neu5Ac(a2-6)Gal(b1-4)GlcNAc(b1-3)Gal(b1-4)GlcNAc(b1-2)Man(a1-3)[Neu5Ac(a2-6)Gal(b1-4)GlcNAc(b1-3)Gal(b1-4)GlcNAc(b1-2)Man(a1-6)]GalNAc
# In short: as §1
# [43] = target: Neu5Ac(a2-6)Gal(b1-4)GlcNAc(b1-3)Gal(b1-4)GlcNAc(b1-3)Gal(b1-4)GlcNAc
# In short: as §1
binder,measurement,setting,value
B1,glycan array binding signal (z-score),[1],0.119
same,glycan array binding signal (z-score),[2],-0.658
same,glycan array binding signal (z-score),[3],0.062
same,glycan array binding signal (z-score),[4],-0.437
same,glycan array binding signal (z-score),[5],-0.64
same,glycan array binding signal (z-score),[6],-0.437
same,glycan array binding signal (z-score),[7],-0.292
same,glycan array binding signal (z-score),[8],0.089
same,glycan array binding signal (z-score),[9],0.251
same,glycan array binding signal (z-score),[10],-0.755
same,glycan array binding signal (z-score),[11],-0.393
same,glycan array binding signal (z-score),[12],0.156
same,glycan array binding signal (z-score),[13],0.011
same,glycan array binding signal (z-score),[14],-0.302
same,glycan array binding signal (z-score),[15],-0.093
same,glycan array binding signal (z-score),[16],-0.392
same,glycan array binding signal (z-score),Neu5Ac(a2-3)GalNAc,-0.107
same,glycan array binding signal (z-score),[17],-0.137
same,glycan array binding signal (z-score),[18],0.058
same,glycan array binding signal (z-score),[19],-0.295
same,glycan array binding signal (z-score),[20],-0.08
same,glycan array binding signal (z-score),[21],-0.316
same,glycan array binding signal (z-score),Neu5Ac(a2-6)Gal,0.058
same,glycan array binding signal (z-score),[22],-0.616
same,glycan array binding signal (z-score),Neu5Ac(a2-6)Gal(b1-4)Glc,0.071
same,glycan array binding signal (z-score),[23],-0.242
same,glycan array binding signal (z-score),[24],0.006
same,glycan array binding signal (z-score),[25],0.253
same,glycan array binding signal (z-score),[26],-0.075
same,glycan array binding signal (z-score),[27],-0.135
same,glycan array binding signal (z-score),[28],-0.221
same,glycan array binding signal (z-score),[29],-0.012
same,glycan array binding signal (z-score),[30],0.063
same,glycan array binding signal (z-score),[31],-0.343
same,glycan array binding signal (z-score),[32],-0.2
same,glycan array binding signal (z-score),[33],0.26
same,glycan array binding signal (z-score),[34],-0.138
same,glycan array binding signal (z-score),[35],-0.064
same,glycan array binding signal (z-score),[36],0.237
same,glycan array binding signal (z-score),[37],-0.202
same,glycan array binding signal (z-score),[38],-0.054
same,glycan array binding signal (z-score),[39],0.025
same,glycan array binding signal (z-score),[40],-0.296
same,glycan array binding signal (z-score),[41],-0.581
same,glycan array binding signal (z-score),[42],-0.35
same,glycan array binding signal (z-score),[43],-0.168
